# Measured values taken from publication PMC4336329 (PLoS ONE, 2015).
# The whole screen tested about 310,000 compounds, of which about 2,200 (0.71%) showed an effect of 50% or more. Effects have a minus sign here. This is one part of the list.
# Target: human ether-à-go-go-related gene (hERG) potassium channel (human, UniProt Q12809)
# Assay: primary screen, population patch clamp on CHO cells stably expressing hERG
# Chain of human ether-à-go-go-related gene (hERG) potassium channel (Q12809 whole entry, looked up): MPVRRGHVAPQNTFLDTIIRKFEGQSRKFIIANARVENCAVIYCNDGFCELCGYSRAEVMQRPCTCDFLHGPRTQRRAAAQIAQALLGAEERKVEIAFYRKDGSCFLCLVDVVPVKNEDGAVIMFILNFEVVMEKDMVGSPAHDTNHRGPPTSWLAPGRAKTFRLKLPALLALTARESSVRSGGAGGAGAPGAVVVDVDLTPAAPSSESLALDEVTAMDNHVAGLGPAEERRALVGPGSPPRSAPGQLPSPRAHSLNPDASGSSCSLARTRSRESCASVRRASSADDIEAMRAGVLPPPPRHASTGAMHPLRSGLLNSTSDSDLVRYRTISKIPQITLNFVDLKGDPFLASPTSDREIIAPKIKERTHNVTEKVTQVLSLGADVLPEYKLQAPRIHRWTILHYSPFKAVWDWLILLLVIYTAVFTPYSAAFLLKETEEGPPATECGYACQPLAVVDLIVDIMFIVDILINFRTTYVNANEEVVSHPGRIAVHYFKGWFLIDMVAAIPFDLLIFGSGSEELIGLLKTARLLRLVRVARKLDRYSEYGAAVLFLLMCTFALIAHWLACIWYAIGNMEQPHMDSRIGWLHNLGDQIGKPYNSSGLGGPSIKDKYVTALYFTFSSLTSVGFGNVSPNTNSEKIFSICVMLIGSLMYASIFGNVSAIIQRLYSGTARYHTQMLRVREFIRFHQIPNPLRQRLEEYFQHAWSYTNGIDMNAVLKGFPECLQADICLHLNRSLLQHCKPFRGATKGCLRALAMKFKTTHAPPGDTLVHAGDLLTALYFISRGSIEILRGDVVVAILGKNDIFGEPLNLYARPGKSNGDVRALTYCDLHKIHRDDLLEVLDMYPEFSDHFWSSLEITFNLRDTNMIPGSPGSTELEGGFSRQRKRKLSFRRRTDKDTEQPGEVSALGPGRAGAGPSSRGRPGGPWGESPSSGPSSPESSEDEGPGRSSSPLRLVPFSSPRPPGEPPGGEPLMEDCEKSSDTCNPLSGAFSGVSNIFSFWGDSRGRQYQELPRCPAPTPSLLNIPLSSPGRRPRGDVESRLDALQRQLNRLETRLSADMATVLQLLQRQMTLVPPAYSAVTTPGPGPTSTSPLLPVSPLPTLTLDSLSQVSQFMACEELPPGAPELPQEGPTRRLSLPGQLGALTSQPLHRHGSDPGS
row,Compound,"hERG current change (%, negative = inhibition) at 1uM [%]"
1,COc1cc(NC(=O)[C@@H](NC(=O)c2ccco2)C(C)C)c(OC)cc1NC(=O)c1ccccc1,-6.51
2,O=C(O)C1CCN(S(=O)(=O)c2ccc(N3CCOCC3)c([N+](=O)[O-])c2)CC1,10.6
3,O=C1CC(C(=O)Nc2cccc3ccccc23)C2(CCCC2)O1 (centres unmarked),13.5
4,O=C(Nc1ccccc1)C1CCN(S(=O)(=O)c2cccs2)CC1,1.37
5,Cc1ccc(F)cc1NC(=O)C1CCCN(c2ncccn2)C1 (centres unmarked),-9.93
6,COc1ccc(S(=O)(=O)CC(O)CN2CCCC2=O)cc1 (centres unmarked),21.4
7,COC(=O)C1=C(C)NC(C)=C(C(=O)OCC2CCCO2)C1c1cccc(Br)c1 (centres unmarked),7.88
8,CC1(CCl)N([O-])C2=C(CCCC2)[N+]1=O (centres unmarked),12.6
9,CCOc1ccc(S(=O)(=O)NCCC(=O)OCN2C(=O)c3ccccc3C2=O)cc1,-4.53
10,N#Cc1c(C(F)(F)F)cc(C2CC2)[nH]c1=O,13.9
11,COC(=O)C(NC(=O)C(C)Oc1ccccc1)C(C)C (centres unmarked),6.48
12,Cn1cccc1P(=O)(c1cccn1C)c1cccn1C,12.9
13,CCOc1ccc(NC(=O)C2CCCN(S(=O)(=O)c3ccc4[nH]c(=O)ccc4c3)C2)cc1 (centres unmarked),7.97
14,Cc1ccc(-c2cc(C(=O)N3CCOCC3)c3cc(C)ccc3n2)cc1,9.61
15,Cc1ccc(NC(=O)C(=O)NC(C)C2COc3ccccc3O2)cc1 (centres unmarked),16
16,C/C(CCN1CCCCc2nc(C)c(C)cc21)=N\O[C@H](C)c1cn([C@H](CO)Cc2ccccc2)nn1,-16.7
17,CSCCC(NC(=O)c1ccc(Cl)cc1)C(=O)NC(C)(C)C (centres unmarked),10.5
18,O=C(Nc1cccc(C(F)(F)F)c1)Oc1ccc(Cl)c2cccnc12,13.6
19,Cc1ccc(N2C(=O)C3N=NN(CC(=O)N4N=C(c5cccc6ccccc56)CC4c4ccccc4)C3C2=O)cc1 (centres unmarked),8.17
20,CCc1ccccc1S(=O)(=O)Cc1ccc(C(=O)NCC2CCCO2)o1 (centres unmarked),-3.3
21,COC(=O)c1cccc(NC(=S)Nc2cc(Cl)ccc2OC)c1,11.7
22,CC(C)CNS(=O)(=O)c1cc(C(=O)OC2CCOC2=O)c(Cl)cc1Cl (centres unmarked),10.5

row,Compound,"hERG current change (%, negative = inhibition) at 1uM [%]"
1,CCc1ccc(Nc2n[n+](-c3ccccc3)c(-c3ccc(OC)c(Br)c3)s2)cc1.[Cl-],10.1
2,Cc1cc(/C=C2\C(=O)NC(=O)N(c3ccccc3F)C2=O)c(C)n1-c1cc(C(=O)O)cc(C(=O)O)c1,10.6
3,Cc1cc(C)c2nc(SC(C)C(=O)NCC(=O)Nc3ccc(F)c(F)c3F)cc(C)c2c1 (centres unmarked),14.8
4,COCCN(C(=O)COC(=O)c1ccco1)c1c(N)n(Cc2ccccc2)c(=O)[nH]c1=O,1.95
5,COc1cc2c(cc1OC)C(c1cc3cc(OC)c(OC)cc3[nH]c1=O)N(C(=O)C1CC1)CC2 (centres unmarked),12.9
6,CC(=O)Nc1ccc(N/C=C/C(=O)c2ccc(Cl)cc2)cc1,14.3
7,CCOC(=O)CNS(=O)(=O)c1ccc(S(=O)(=O)NC2CC2)cc1,13.9
8,c1ccc(CSc2nnc3c4ccccc4c4ccccc4c3n2)cc1,11.7
9,COc1ccc(-n2cnc3cc(NC(=O)c4ccco4)ccc32)cc1,-6.01
10,CC(=O)Nc1ccc(Nc2cc(C)nc3c(-c4ccc(Cl)cc4)cnn23)cc1,8.99
11,CCCCNC(=O)C1CCN(S(=O)(=O)N2CCCCCC2)CC1,-0.918
12,Cc1ccc(-c2cccc(NC(=O)C3C(C(=O)O)[C@@H]4C=C[C@H]3C4)c2)o1 (some centres unmarked),5.51
13,Cc1cc(C(=O)NC2CC(C)(C)Cc3c2cnn3-c2ccc(F)cc2)nn1C (centres unmarked),5.91
14,N#Cc1c(CSCC(=O)O)cc(=O)n2c1[nH]c1ccccc12,16.8
15,NC(=O)CSc1nnc(-c2ccccc2)c(-c2ccccc2)n1,11.3
16,O=C(CCSCc1ccccc1F)NCc1cccs1,4.18
17,COCCn1c(-c2ccsc2)nc2c1c(=O)[nH]c(=O)n2CC(C)C,1.56
18,Cc1ccc(-c2nc3cnccn3c2Nc2ccc3c(c2)OCO3)o1,-8.81
19,OC(c1ccc(F)cc1)(c1ccc(F)cc1)[C@@H]1CCCN1,4.39
20,COc1ccc(C2CC(c3ccc(Cl)cc3Cl)Nc3nc(N)nn32)cc1 (centres unmarked),-5.3
21,CCC(OC(=O)c1nsc(Cl)c1Cl)C(=O)NCC1CCCO1 (centres unmarked),11.5
22,COc1ccc(CN(Cc2ccc(C(=O)O)cc2)C(=S)Nc2cccc(C)c2)cc1OC,21

row,Compound,"hERG current change (%, negative = inhibition) at 1uM [%]"
1,CCCc1nc2ccccc2c(C(=O)OCC(=O)Nc2c(C)n(C)n(-c3ccccc3)c2=O)c1CC,6.45
2,O=C(NCc1ccc2c(c1)OCO2)c1c(O)nc2sccn2c1=O,16.8
3,CC(=O)c1ccc([N+](=O)[O-])c(CS(=O)(=O)c2ccccc2)c1,16.3
4,OC(Cn1cncn1)(c1ccc(F)cc1)c1ccc(Cl)cc1 (centres unmarked),13.9
5,COc1ccc(C2OC(=O)CC2C(=O)N2CCN(c3cc(Cl)ccc3C)CC2)cc1OC (centres unmarked),7.68
6,COc1ccc(/C=N/NC(=O)CCc2c(C)n[nH]c2C)cc1OC,16
7,CC(=O)[O-].[K+].c1ccc2c(c1)OCCOCCOc1ccccc1OCCOCCO2,-80.7
8,COc1ccccc1C(=O)NC(CCSC)C(=O)OCC(=O)NC(=O)NCc1ccco1 (centres unmarked),2.81
9,CC(Nc1ccc(Br)cc1)C(=O)N/N=C/c1ccccc1OCc1ccccc1 (centres unmarked),8.25
10,CCOc1ccc(NC(=O)COC(=O)Cc2ccc(S(=O)(=O)N3CCOCC3)s2)cc1,2.84
11,C=CCn1c(Cc2ccccc2)nc2c(cnn2-c2ccccc2)c1=O,-11.9
12,O=C(NCc1ccco1)c1ccc(C(F)(F)F)cc1,13.5
13,Cc1cc(C)c(C#N)c(Sc2ccc(N)cc2)n1,0.433
14,COc1ccc(Cl)cc1NC(=O)CN(C)C(=O)C1CCN(C(=O)Nc2ccccc2)CC1,-10.8
15,CCN(CC)S(=O)(=O)c1ccc(C2=NOC3(C2)N(C)c2ccccc2C3(C)C)cc1 (centres unmarked),2.73
16,Cc1nc2ccc3nc(NC(=O)c4ccco4)sc3c2s1,-4.05
17,COc1ccc(-c2nc(=S)n3ccsc3n2)cc1OC,8.81
18,O=C(Nc1ccc2c(c1)OCCO2)c1cccc(S(=O)(=O)N2CCCCC2)c1,-2.76
19,Cc1ccc(S(=O)(=O)N2CCOCC2)cc1NC(=O)CNCc1ccccn1.O=C(O)C(=O)O,6.75
20,CCC1CN(C(=O)Nc2ccc(C)cc2)c2cc(C)ccc2O1 (centres unmarked),11.2
21,CC1=C(C(=O)OCc2ccccc2)C(c2ccccc2Cl)NC(=O)N1CCCCCC(=O)O (centres unmarked),10.4
22,Cc1ccc(S(=O)(=O)NCC(=O)OCC(=O)c2cccs2)cc1,0.484

row,Compound,"hERG current change (%, negative = inhibition) at 1uM [%]"
1,Cc1nc(N2CCOCC2)c2oc3ccccc3c2n1,6.52
2,CCOC(=O)N1CCC(c2cc(=O)n(-c3ccccc3)[nH]2)CC1,26.8
3,CCNC(=S)NC1CC2CCCC(C1)N2CCc1ccccc1 (centres unmarked),-17.8
4,N#Cc1c(SCC(=O)Nc2nccs2)nc2c(c1-c1ccco1)CCCC2,2.94
5,Cc1c(F)cccc1NC(=O)CSCC(=O)Nc1ccccc1,5.59
6,Cc1ccc(NC(=O)C(C)NC(=O)OCc2ccccc2)cc1C (centres unmarked),14.1
7,COc1ccc(C(F)(F)F)cc1N/C=C/c1nnnn1-c1ccc(C)cc1,17.7
8,CN(C)S(=O)(=O)c1ccc(C(=O)NCC2(N3CCOCC3)CCCCC2)cc1,3.52
9,Cc1ccc(C)c(OCCCC(=O)Nc2ccccc2C(N)=O)c1,1.78
10,O=C(O)CCCn1c(=O)c2cccn2c2ccc(F)cc21,4.1
11,CCCC1Cc2[nH]c(=O)c(C#N)cc2CO1 (centres unmarked),12
12,COc1cc(NC(=S)NC(C)(C)C)c(OC)cc1Cl,11.2
13,CC(C)CCNC(=O)c1c(N)n(Cc2ccc3c(c2)OCO3)c2nc3ccccc3nc12,11.9
14,CS(=O)(=O)c1ccc(C(=O)NC2CCCCC2)cc1,10.5
15,Cc1nc2ncnn2c(C)c1CCC(=O)N1CCCCC1,14.6
16,CCCCn1c(N)c(N(CC(C)C)C(=O)c2cccc(S(=O)(=O)N(C)c3ccc(C)cc3)c2)c(=O)[nH]c1=O,9.34
17,COC(=O)NCN1C(=O)C2C3C=CC(C3)C2C1=O (centres unmarked),11.5
18,COc1ccc(C(=O)NNC(=O)CSc2nnc(C)n2C)cc1,19
19,S=C(NCc1ccccc1)N1CCN(C(=S)NCc2ccccc2)CC1,16.8
20,O=C(NCCCn1ccnc1)c1nn2c(C(F)(F)F)cc(-c3ccc(Br)cc3)nc2c1Cl,-1.16
